Test results taken from PubChem BioAssay AID1460 (National Center for Advancing Translational Sciences (NCATS), 2008).
About 5,800 (2.1%) of roughly 270,000 compounds were called active. The shares of active, inactive and inconclusive entries below differ from those in the screen. Calls come from the whole dose curve; as a rule, active = well fitted inhibition curve with a large enough effect; inconclusive = small, poorly fitted or top-dose-only effect; inactive = flat fitted curve, though single readings scatter. Potencies of inconclusive entries are doubtful fits and often do not repeat.

Molecular target: Microtubule-associated protein tau (Homo sapiens) (UniProt P10636)
Sequence of UniProt P10636 (P10636 whole entry, looked up): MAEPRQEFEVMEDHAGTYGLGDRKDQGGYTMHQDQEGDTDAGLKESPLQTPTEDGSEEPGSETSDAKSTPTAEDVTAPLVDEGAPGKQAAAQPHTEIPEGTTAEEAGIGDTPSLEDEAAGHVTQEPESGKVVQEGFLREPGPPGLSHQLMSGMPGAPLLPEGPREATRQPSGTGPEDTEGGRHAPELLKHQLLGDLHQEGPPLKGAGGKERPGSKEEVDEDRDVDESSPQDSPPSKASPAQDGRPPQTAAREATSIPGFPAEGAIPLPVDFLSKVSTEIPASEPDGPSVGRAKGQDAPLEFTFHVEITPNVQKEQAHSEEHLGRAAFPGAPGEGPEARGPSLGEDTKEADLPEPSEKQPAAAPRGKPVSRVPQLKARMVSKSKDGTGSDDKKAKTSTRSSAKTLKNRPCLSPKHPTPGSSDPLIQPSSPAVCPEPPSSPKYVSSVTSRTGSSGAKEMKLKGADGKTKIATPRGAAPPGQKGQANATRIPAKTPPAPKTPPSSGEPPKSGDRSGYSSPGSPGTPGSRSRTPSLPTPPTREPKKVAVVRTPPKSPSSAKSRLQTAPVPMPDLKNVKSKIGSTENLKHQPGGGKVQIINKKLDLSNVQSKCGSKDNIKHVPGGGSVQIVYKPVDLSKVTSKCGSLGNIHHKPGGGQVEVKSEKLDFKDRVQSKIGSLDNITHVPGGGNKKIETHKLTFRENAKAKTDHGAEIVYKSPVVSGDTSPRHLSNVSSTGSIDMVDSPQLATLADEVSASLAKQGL
Assay: qHTS for Inhibitors of Tau Fibril Formation, Thioflavin T Binding; note: nearly all actives have a fitted effect of over 55% in size
Conditions: recombinant tau K18 P301L, heparin-induced fibrillization, ThT fluorescence; series mostly up to 57.4 µM
Procedure, shortened: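 Using a mix of unlabeled (15 uM) and Alexa 594-labeled (0.24 uM) tau K18 P301L, heparin-triggered fibrillization over 6 hr at 37 C was scored by ThT fluorescence.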
Potency is the fitted concentration of half-maximal effect; tags give direction and shape of the fitted curve.

SMILES	Potency
COc1ccc(Cl)cc1NC(=O)c1c(NCc2ccc(C)o2)sc2c1CCCCC2	inconclusive: 31.6 µM [inhibitor, single point]
O=C(Nc1ccc(F)cc1)Nc1ccc(N2CCCC2)c(S(=O)(=O)Nc2ccccc2Cl)c1	inactive
COc1cccc(NC(=O)c2ccc3nc(CCc4ccccc4)oc3c2)c1	inactive
O=[N+]([O-])c1ccc(N2CCNCC2)cc1Sc1nc2ccccc2[nH]1	inconclusive: 25.1 µM [inhibitor, single point]
O=C(NCC(=O)N(c1ccc(F)cc1)C(C(=O)NCC1CCCO1)c1ccccc1)c1ccco1 (stereo not drawn)	inactive
COc1cc([N+](=O)[O-])cc(/C=N/NC(=O)c2cccnc2)c1O	inconclusive: 15.8 µM [inhibitor, partial curve]
O=C(c1ccccc1)N1CCN(c2ccc(NCc3ccc4c(c3)OCO4)cc2)CC1	inconclusive: 2.82 µM [inhibitor, partial curve]
CCn1c(C(=O)NCCc2ccc(OC)c(OC)c2)cc2sc(Cl)cc21	inconclusive: 10 µM [inhibitor, partial curve]
Nc1c(-c2nc(-c3cccs3)no2)nnn1-c1ccc(Cl)cc1	inactive
COc1cccc(C(=O)Nc2cccc(C(=O)OCc3cc(=O)n4nc(C5CC5)sc4n3)c2)c1	inconclusive: 0.398 µM [inhibitor, full curve]
c1ccc2oc(SCc3nc4ccccc4s3)nc2c1	inconclusive: 20 µM [inhibitor, partial curve]
CCOC(=O)c1cnn(-c2ccc(C(=O)Nc3cc(OC)c(OC)c(OC)c3)cc2)c1N	inconclusive: 17.8 µM [inhibitor, single point]
CSc1ncc2c(n1)-c1ccccc1N(Cc1ccc(Cl)cc1)S2(=O)=O	inactive
CC1CCN(S(=O)(=O)c2cn(CC(=O)Nc3cccc(C(F)(F)F)c3)c(=O)c3ccccc23)CC1	inactive
O=C(Cn1cc(C(=O)c2ccco2)c2ccccc21)Nc1ccc(Br)cc1	inconclusive: 15.8 µM [inhibitor, partial curve]
O=c1cc2c(nn1Cc1ccccc1Cl)-c1ccccc1CC2	inconclusive: 22.4 µM [inhibitor, partial curve]
Cc1cccc(C)c1OCCn1c(C2CC(=O)N(c3cccc(Cl)c3)C2)nc2ccccc21 (stereo not drawn)	inactive
CC(=O)c1ccc(-n2nncc2-c2ccc([N+](=O)[O-])cc2)cc1	inactive
COc1ccc(SCc2cc(=O)c3cc(Cl)ccc3[nH]2)cc1	inactive
COc1cc(OC)cc(C(=O)NCC(=O)OCC(=O)c2ccc3c(c2)-c2ccccc2C3)c1	inconclusive: 4.47 µM [inhibitor, full curve]
CCN(CCC#N)c1ccc(/C=N/Nc2nc(C)cc(=O)[nH]2)c(C)c1	inconclusive: 15.8 µM [inhibitor, partial curve]
COc1ccc(-c2[nH]c3ccccc3c2SCCNC(=O)c2cc(OC)c(OC)c(OC)c2)cc1	inconclusive: 28.2 µM [inhibitor, partial curve]
CCOc1ccc(-c2cc(CCCC(=O)NCCc3ccccc3)no2)cc1	inconclusive: 0.199 µM [inhibitor, full curve]

SMILES	Potency
Cc1cc(OC(=O)c2cc(Cl)nc3ccccc23)ccc1Cl	inconclusive: 15.8 µM [inhibitor, partial curve]
CN1CCN(C2Cc3ccccc3Sc3ccc(S)cc32)CC1 (stereo not drawn)	inconclusive: 39.8 µM [inhibitor, single point]
Cn1cccc1/C=C1\SC(=S)N(NC(=O)c2ccccc2O)C1=O	active: 7.94 µM
CCCCN(C(=O)CSc1nnc(-c2ccco2)o1)c1c(N)n(Cc2ccccc2)c(=O)[nH]c1=O	inactive
Cc1cccc2sc(NNC(=O)c3ccc(S(=O)(=O)N4CC(C)CC(C)C4)cc3)nc12 (stereo not drawn)	inconclusive: 20 µM [inhibitor, partial curve]
COc1ccc(CCNC(=O)COc2ccccc2[N+](=O)[O-])cc1OC	inconclusive: 39.8 µM [inhibitor, single point]
CCOc1ccc(NC(=O)N2CCN(c3nc4ccccc4s3)CC2)cc1	inconclusive: 2 µM [inhibitor, full curve]
Cc1ccc(-n2ncc(C(=O)NCc3ccccc3C)c2-n2cccc2)cc1	inconclusive: 22.4 µM [inhibitor, single point]
Cc1nn(Cc2ccc(F)cc2)c2sc(C(=O)Nc3ccc(N4CCOCC4)cc3N3CCOCC3)cc12	inconclusive: 14.1 µM [inhibitor, partial curve]
CCCC(=O)Nc1ccc(C(=O)Nc2nc(CC(=O)OCC)cs2)cc1	inconclusive: 8.91 µM [inhibitor, partial curve]
CC(=O)c1ccc(NC(=O)CSc2nnc3ccc(-c4ccc(Cl)cc4)nn23)cc1	inactive
CS(=O)(=O)C1=NSC2=NC(=O)/C(=C\c3cccn3-c3ccc(Cl)cc3)C(=N)N21	inconclusive: 25.1 µM [inhibitor, partial curve]
CCOc1ccc(NC(=O)C2CCCN(S(=O)(=O)c3cccc4nonc34)C2)cc1 (stereo not drawn)	inactive
O=C(CCC(=O)N1CCN(c2ccccc2)CC1)Nc1nnc(C2CCCCC2)s1	inconclusive: 5.01 µM [inhibitor, single point]
CCC(=O)Oc1ccc(/C=C(\C#N)c2nc3ccccc3[nH]2)cc1OC	inconclusive: 4.47 µM [inhibitor, full curve]
CCCSc1nc2c(c(=O)[nH]c(=O)n2C)n1CC(O)COc1ccccc1 (stereo not drawn)	inactive
CCn1c2ccccc2c2cc(CN3CCN(Cc4ccccc4F)CC3)ccc21	inconclusive: 17.8 µM [inhibitor, partial curve, poor fit]
COC(=O)c1cc(=O)n(Cc2cccs2)c(=Nc2ccccc2)s1	inconclusive: 22.4 µM [inhibitor, partial curve]
N#Cc1c(N2CCCCC2)nc(N)c2c(N)nc3c(c12)CC(c1ccccc1)O3 (stereo not drawn)	inconclusive: 17.8 µM [inhibitor, partial curve]
C[C@@H](O)C#C[Si](C)(C)c1ccccc1	inactive
Cn1ncc(N=Cc2ccc([N+](=O)[O-])cc2)c1C(=O)N1CCOCC1	inconclusive: 11.2 µM [inhibitor, partial curve]
CCOc1ccc(S(=O)(=O)NCCc2sc3nc(-c4ccc(F)cc4)nn3c2C)cc1	inactive
CCCc1cc(=O)[nH]c(SCC(=O)N2CCCc3ccccc32)n1	inconclusive: 15.8 µM [inhibitor, single point]

SMILES	Potency
COc1ccc(-c2csc(N3CCN(C(=O)c4ccccc4)CC3)n2)cc1	inconclusive: 15.8 µM [inhibitor, partial curve]
Cc1ccc(CNC(=O)c2ccc(Cn3c(=O)c4ccccc4n(CC(=O)Nc4ccc(C)cc4C)c3=O)cc2)cc1	inactive
CC(C)Sc1oc(-c2cccs2)nc1S(=O)(=O)c1ccc(Cl)cc1	inconclusive: 12.6 µM [inhibitor, partial curve]
N#Cc1c(NC(NC(=O)c2ccco2)C(=O)c2ccccc2)sc2c1CCCC2 (stereo not drawn)	inconclusive: 25.1 µM [inhibitor, partial curve]
NC(N)=NC(N)=NCCc1ccccc1	inconclusive: 39.8 µM [inhibitor, single point]
CCc1ccccc1NC(=O)c1ccc2c(O)c(S(=O)(=O)c3ccccc3)c(=O)[nH]c2c1	inactive
O=C(O)CCCCCN1C(=O)/C(=C\c2ccncc2)SC1=S	inconclusive: 7.08 µM [inhibitor, partial curve]
O=C(Nc1ccc(NC(=O)C2CCCCC2)cn1)c1ccco1	inactive
CC(=O)C1=C(c2ccccc2)OC(N)=C(C#N)C1c1ccccc1C (stereo not drawn)	inconclusive: 28.2 µM [inhibitor, single point]
CCOc1ncccc1C(=O)Oc1ccc2c(c1)OCO2	inactive
COc1ccc(NC(=O)c2cc3nc(-c4ccc(C)c(C)c4)cc(C(F)(F)F)n3n2)cc1	inconclusive: 2.24 µM [inhibitor, full curve]
COc1cc(/C=N/Nc2cccc(C)c2)ccc1OC(=O)c1cccs1	inconclusive: 14.1 µM [inhibitor, partial curve]
Cc1c(Cl)c([N+](=O)[O-])nn1CCCC(=O)Nc1ccc(Cl)cc1Cl	inconclusive: 39.8 µM [inhibitor, single point]
NC(=S)N=Nc1c(O)n(CCCl)c2ccccc12	inconclusive: 8.91 µM [inhibitor, partial curve]
CCOC(=O)N1CCC(N2C(=O)c3ccccc3C2Nc2cc(Cl)c(OC)cc2OC)CC1 (stereo not drawn)	inconclusive: 11.2 µM [inhibitor, partial curve]
O=C(NCc1ccco1)c1cccc(-c2nnc(-c3ccccc3)o2)c1	inactive
Cc1cccc(C)c1NC(=O)NN=C1CCCCC1	inactive
COc1ccc(C2CC(C(F)(F)F)n3nc(C(=O)Nc4ccc5c(c4)OCO5)cc3N2)cc1 (stereo not drawn)	inconclusive: 3.98 µM [inhibitor, full curve]
COc1cc(/C=C2/NC(=O)N(CC(=O)Nc3cccc(C)c3)C2=O)ccc1OCC(N)=O	inactive
CCc1cccc2c1NC1(CCCC1)CC2C (stereo not drawn)	inconclusive: 7.08 µM [inhibitor, partial curve]
CCc1c(C)sc(NC(=O)c2ccccc2[N+](=O)[O-])c1C(N)=O	inconclusive: 12.6 µM [inhibitor, single point]
Cc1ccc(C(=O)Nc2cccc(-c3nc4cccnc4s3)c2C)cc1	inconclusive: 1.12 µM [inhibitor, full curve]
